# Data as given in US20230416329A1, “A PEPTIDE WITH DISULFIDE BONDS AND INHIBITORY ACTIVITY AGAINST SERINE PROTEASES, DERIVED HYBRID PEPTIDES THEREOF, AND USES THEREOF” (INSTITUTE OF MATERIA MEDICA , CHINESE ACADEMY OF MEDICAL …, priority 2020, published 2023).
# Entries after “also recorded” stand apart in the source; their conditions may differ. Read-outs that look alike come from different tables or passages of the source. At least one peptide structure holds a part that was inferred or is arguable (an end, a ring closure or a residue). Bridge positions count the residues as written; N and C are the ends. Square brackets hold non-standard residues; d marks the D form. Peptide text beside a SMILES is read from it. Hyp = O=C(O)[C@@H]1C[C@@H](O)CN1
# Key:
# α-chymotrypsin = α-chymotrypsin (Bos taurus, UniProt P00766); assay: Chymotrypsin inhibitory activity of peptides (AAPFpNA hydrolysis; IC50, Ki, residual activity); assay type: biochemical
# Experimental: The inhibition constants of various synthetic active peptide inhibitors (molecular scaffolds) against seine proteases were measured. The substrates N-succinyl-Ala-Ala-Pro-Phe-p-nitroaniline (AAPFpNA), Nα—Benzoyl-L-arginine-4-nitroaniline hydrochloride (BApNA) and N-succinyl-[…] (AAApNA) are used in competitive binding reaction to determine the inhibitory activities against α-chymotrypsin, bovine trypsin, and porcine pancreatic elastase, respectively. Experiments for α-chymotrypsin and bovine trypsin inhibition were measured in 20 mM CaCl2, 50 mM Tris-HCl buffer (pH 7.8), and that for porcine elastase inhibition was measured in 50 mM Tris-HCl buffer (pH 8.0). The concentration of the peptide was measured using optical density (OD) at 280 nm. The Michaelis constant (Km) of the enzyme hydrolysis substrate is calculated from the initial rate of substrate hydrolysis at 405 nm. The absorbance value of the substrate was measured at 405 nm after complete hydrolysis. All data were processed using nonlinear regression.
# • (1) Added a total 190 μL of reaction buffer (20 mM CaCl2, 50 mM Tris-HCl (pH 7.8)) into the 96 well plate, followed by preheating at 37° C. for 15 min. […] Finally, the plate was incubated at 37° C. for 20 min, and the absorbance value at 405 nm was measured. […] Finally, the plate was incubated at 37° C. for 20 min, and the absorbance value at 405 nm was measured. […]
# rats = assay: Hypo-calcifying effect of salmon calcitonin and analogues, blood calcium concentration in rats; assay type: in vivo, rat; details: sCat and CalM subcutaneous, capsule form Cal BT 1 umol/kg p.o., 0-24 h
# Experimental: FIG. 24. The blood calcium concentration percentage-time curve of rat.
# Rats were fasted for 12 hours with water ad libitum before the experiment. The animals were randomly divided into 4 groups (5 animals in each group). The normal control group was injected with normal saline solution, and the commercially available salmon Calcitonin (sCat) and synthetic Calcitonin analog (CalM) were injected subcutaneously. The capsule form Cal BT (1 umol/kg, p.o.) was administered by gavage.
# Take blood from the inner canthus of rats at the predetermined time points: 0, 2, 3, 4, 6, 8, 12, and 24 h later, with at least 0.2 mL of blood taken each time. The blood sample was placed at 4° C. for stratification and centrifuged at 3000 rpm for 10 minutes. The serum was separated and measured for serum calcium ion concentration.
# The serum calcium ion concentration at 0 h was considered as baseline, the blood calcium concentration at other time was converted into the percentage ratio of baseline. The blood calcium curve was drawn with time as the X axis and the percentage of blood calcium concentration (%) as the Y axis.
# [1] = tested on: P407-induced hyperlipidemia mice; assay: Subcutaneous injection of PCSK9 inhibitory peptide, serum total cholesterol in P407-induced hyperlipidemia mice; assay type: in vivo, mouse; details: for serum total cholesterol (TC) level after subcutaneous injection (in words): 2 μmol/kg single s.c., P407-induced hyperlipidemia mice
# Experimental: The experimental peptide sample was prepared using PEG400 with a final concentration of […], and the final concentration of PEG400 is 20% (w/v). Normal ICR mice were fasted overnight with water ad libitum. The next day, all of the mice were randomly divided into model control group (Con) and polypeptide administration group (2 μmol/kg) according to body weight. Then, all of the mice were intraperitoneally injected with P407 (500 mg/kg) and fed with feed 2 hours later. Six mice were taken as a normal control group (Nor). After 24 hours, the mice in Con were subcutaneously injected with saline containing 20% PEG400, and the mice in the treatment group were given peptides. Then, the blood was taken at different time points after administration to determine the serum total cholesterol (TC) level. In consideration of the complexity of factors affecting serum LDL-C levels, especially the differences between single and long-term administration, the in vivo activity of PCSK9 inhibitory peptide is mainly observed for changes in serum TC levels.
# [2] = tested on: P407 induced hyperlipidemia mice; assay: Duodenal injection of PCSK9 inhibitory peptide, serum total cholesterol in P407 induced hyperlipidemia mice; assay type: in vivo, mouse
# Experimental: The experimental polypeptide sample was prepared using PEG400 with a final concentration of 20 μmol/kg and the final concentration of PEG400 is 50% (w/v). The control group was saline containing PEG400 (50%).
# Normal ICR mice were fasted overnight with water ad libitum. The next day, all of the mice were intraperitoneally injected with poloxamer 407 (P407, 500 mg/kg) to establish a model of lipid metabolism disorder. Six mice were intraperitoneally injected with saline as a normal control (Nor). Normal feeding resumed after 2 hours. The model animals were randomly divided into model group (Con) and polypeptide groups according to body weight, and the blood was collected from tail tip (0 min). Then, the animals were anesthetized with ether for duodenal exposure surgery. At the same time, a sample or saline containing PEG400 was injected through the duodenum. Finally, the wound was sutured. The blood was collected from tail tip at 15, 30, 60, and 90 minutes after administration to determine the serum total cholesterol level.
# [3] = target: T1, interaction of PCSK9-LDLR (Homo sapiens, UniProt Q8NBP7); assay: PCSK9-LDLR in vitro binding assay (inhibitory rate)
# T1 construct: purchased MBL Company, Beijing, China CY-8150
# Experimental: Polypeptide PCSK9_1-14 (SEQ ID NOs: 210-223) is dissolved in pure water or DMSO. 85 μL reaction buffer, 5 μL 1 mM polypeptide sample and 10 μL 750 ng/mL PCSK9 protein was pre-incubated at room temperature for 20 minutes before being added to a 96 well plate. The OD450/540 nm value was measured according to the instructions of the PCSK9-LDLR in Vitro Binding Assay Kit (CY-8150, MBL Company, Beijing, China). Solvent control: replace polypeptide with 5 μL solvent. In 100 μL reaction system, the final concentration of the polypeptide and PCSK9 is 50 μM and 75 ng/mL, respectively.
# Inhibition rate of polypeptide (%)=(OD450/540 nm(solvent control)−OD450/540 nm (sample))/OD450/540 nm(solvent control)×100
# T1 sequence (Q8NBP7 153-692): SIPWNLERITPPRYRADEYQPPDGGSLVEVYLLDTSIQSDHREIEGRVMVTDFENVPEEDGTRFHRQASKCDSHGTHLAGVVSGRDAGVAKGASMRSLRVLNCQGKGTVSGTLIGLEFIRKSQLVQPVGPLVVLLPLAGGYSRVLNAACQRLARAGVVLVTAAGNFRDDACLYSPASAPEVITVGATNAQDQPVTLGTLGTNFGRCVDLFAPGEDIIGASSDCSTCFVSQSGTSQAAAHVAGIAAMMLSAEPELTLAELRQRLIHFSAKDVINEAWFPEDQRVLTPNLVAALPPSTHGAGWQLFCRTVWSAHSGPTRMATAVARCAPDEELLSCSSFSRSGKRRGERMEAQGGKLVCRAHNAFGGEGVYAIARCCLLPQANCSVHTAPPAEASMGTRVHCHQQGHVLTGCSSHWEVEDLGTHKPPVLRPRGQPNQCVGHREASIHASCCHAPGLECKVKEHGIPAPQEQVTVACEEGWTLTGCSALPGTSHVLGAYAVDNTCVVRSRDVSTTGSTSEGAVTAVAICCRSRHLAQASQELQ
# T1 sequence (Q8NBP7 31-152 partner limits assumed): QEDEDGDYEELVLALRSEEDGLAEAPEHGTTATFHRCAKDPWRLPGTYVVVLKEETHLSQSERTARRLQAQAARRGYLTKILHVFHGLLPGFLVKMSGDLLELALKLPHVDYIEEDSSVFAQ
smiles,measurement,setting,value
CC[C@H](C)[C@@H]1NC(=O)[C@H](CO)NC(=O)[C@H](Cc2ccc(O)cc2)NC(=O)[C@H]([C@@H](C)O)NC(=O)[C@@H](NC(=O)[C@@H](N)Cc2ccccc2)CSSC[C@@H](C(=O)N[C@@H](Cc2ccc(O)cc2)C(=O)NCC(=O)O)NC(=O)[C@H](CCC(N)=O)NC(=O)[C@@H]2C[C@@H](O)CN2C(=O)[C@@H]2CCCN2C1=O [CH52] (H-FCTYSIP[Hyp]QCYG-OH; disulfide 2-10),inhibitory activity against chymotrypsin (in words),α-chymotrypsin,good chymotrypsin inhibitory activity
CC(C)C[C@H](NC(=O)CNC(=O)[C@@H]1CSSC[C@H](N)C(=O)N[C@@H](CO)C(=O)N[C@@H](CC(N)=O)C(=O)N[C@@H](CC(C)C)C(=O)N[C@@H](CO)C(=O)N[C@@H]([C@@H](C)O)C(=O)N1)C(=O)NCC(=O)N[C@@H](CCCCN)C(=O)N[C@@H](CC(C)C)C(=O)N[C@@H](CO)C(=O)N[C@@H](CCC(N)=O)C(=O)N[C@@H](CCC(=O)O)C(=O)N[C@@H](C)C(=O)N[C@@H](Cc1c[nH]cn1)C(=O)N[C@@H](CCCCN)C(=O)N[C@@H](CC(C)C)C(=O)N[C@@H](CCC(N)=O)C(=O)N[C@H](C(=O)N[C@@H](Cc1ccc(O)cc1)C(=O)N1CCC[C@H]1C(=O)N[C@@H](CCCNC(=N)N)C(=O)N[C@H](C(=O)N[C@@H](CC(N)=O)C(=O)N[C@H](C(=O)NCC(=O)N[C@@H](CO)C(=O)NCC(=O)N[C@H](C(=O)N1CCC[C@H]1C(=O)O)[C@@H](C)O)[C@@H](C)O)[C@@H](C)O)[C@@H](C)O [CalM] (H-CSNLSTCGLGKLSQEAHKLQTYPRTNTGSGTP-OH; disulfide 1-7),blood calcium concentration (in words),rats,effectively reduce the concentration of calcium ions in rats 3 hours after administration; also recorded: significantly decreased at the 3 h after administration
CC[C@H](C)[C@@H]1NC(=O)[C@@H]2CCCN2C(=O)[C@@H]2CCCN2C(=O)[C@H]([C@@H](C)CC)NC(=O)[C@H](CO)NC(=O)[C@H](CCCCN)NC(=O)[C@H]([C@@H](C)O)NC(=O)[C@H](C)NC(=O)[C@H](CCCNC(=N)N)NC(=O)CNC(=O)[C@@H](NC(=O)[C@@H](NC(=O)[C@H](Cc2ccc(O)cc2)NC(=O)[C@H](CC(=O)O)NC(=O)[C@H](CC(C)C)NC(=O)[C@H](Cc2ccc(O)cc2)NC(=O)[C@H](CCC(=O)O)NC(=O)[C@H](CCC(=O)O)NC(=O)[C@@H](N)Cc2c[nH]c3ccccc23)C(C)C)CSSC[C@@H](C(=O)N[C@@H](Cc2ccccc2)C(=O)NCC(=O)N[C@H](C(=O)N[C@H](C(=O)N[C@@H](Cc2ccccc2)C(=O)N[C@H](C(=O)N[C@@H](CO)C(=O)O)[C@@H](C)O)C(C)C)[C@@H](C)O)NC1=O [PCSK9_6] (H-WEEYLDYVCGRATKSIPPICFGTVFTS-OH; disulfide 9-20),serum total cholesterol (TC) level after subcutaneous injection (in words),[1],reduced serum TC level
same,serum total cholesterol (TC) level after subcutaneous injection (in words),[1]; listed as SEQ ID NO: 215,excellent lowering lipid (total cholesterol) activities in vivo
same,TC 15 min,"[1]; serum, subcutaneous 2 μmol/kg, 15 min after administration, mean ± sd",3062 ± 376 µg/mL
same,TC 30 min,"[1]; serum, subcutaneous 2 μmol/kg, 30 min after administration, mean ± sd",3200 ± 373 µg/mL
same,TC 60 min,"[1]; serum, subcutaneous 2 μmol/kg, 60 min after administration, mean ± sd",3068 ± 472 µg/mL
same,TC 90 min,"[1]; serum, subcutaneous 2 μmol/kg, 90 min after administration, mean ± sd",2934 ± 506 µg/mL
same,hypolipidemic activity after duodenal administration (in words),"[2]; 20 μmol/kg, P407 induced hyperlipidemia mice",did not show hypolipidemic activity
same,TC 15 min,"[2]; serum, duodenal injection 20 μmol/kg, 15 min, mean ± sd",2968 ± 661 µg/mL
same,TC 30 min,"[2]; serum, duodenal injection 20 μmol/kg, 30 min, mean ± sd",3096 ± 807 µg/mL
same,TC 60 min,"[2]; serum, duodenal injection 20 μmol/kg, 60 min, mean ± sd",3153 ± 833 µg/mL
same,TC 90 min,"[2]; serum, duodenal injection 20 μmol/kg, 90 min, mean ± sd",2948 ± 870 µg/mL
same,inhibitory activity on the interaction between PCSK9 and LDLR (in words),[3],good inhibitory activity on the interaction between PCSK9 and LDLR
same,inhibitory activity on the interaction between PCSK9 and LDLR (in words),[3]; listed as SEQ ID NO: 215,good inhibitory effects in vitro
